Results: PubChem BioAssay AID1508624 (National Center for Advancing Translational Sciences (NCATS), 2021)
The campaign covered roughly 48,000 compounds. About 120 (0.25%) were called active. Inconclusive results (about 4%) are left out. Calls follow the shape of the dose curve; as a rule, active = well fitted activation curve with a large enough effect; inconclusive = small, poorly fitted or top-dose-only effect, or another doubt; inactive = no such curve, though single readings can be large or run the other way. Some of the results follow.

Assay: Primary qHTS for Identification of Small Molecule Activators of Huntingtin-Antisense Promoter Activity; also: nearly all actives have a fitted effect of over 55% in size
Conditions: HEK293 HTT-AS promoter firefly luciferase reporter (activity 0% = vehicle and -100% = no light), 24 h; series mostly up to 57.5 µM; activity change, positive = activation: at the top concentration
Summary of the method: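 Quantitative HTS used concentration series of up to 57.5 uM final on HEK293 luciferase reporter cells, 24 h at 37 degrees C. Readout was Dual-Glo firefly luminescence.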

Activity change, positive = activation, inactive:
O=C(Cn1cc(S(=O)(=O)Cc2ccccc2Cl)c2ccccc21)NCCc1ccccc1 -22.9%
COc1ccc(NC(=O)c2c(NC(=O)COc3ccccc3)sc3c2CCCCC3)cc1 -5.35%
CCOc1ccccc1CNS(=O)(=O)c1cc2c(cc1C)NC(=O)CO2 -16.2%
Cc1ccccc1CNC(=O)CCC(=O)N1CCSc2ccccc21 -17%
O=C(NCc1ccc(F)cc1)C(=O)Nc1ccc2nc3n(c(=O)c2c1)CCCCC3 -2%
CCn1nnc2cc(C(=O)Nc3cc(C)ccc3C)ccc21 -3.13%
Cc1ccc(-c2cc3ncc4c(n3n2)-c2cc(Cl)ccc2OC4)cc1 -8.05%
COc1ccc(NC(=O)CCNS(=O)(=O)c2ccc3c(c2)CCCC(=O)N3)cc1 -9.68%
COc1ccc(NC(=O)CC2C(=O)N(c3cccc(OC)c3)C(=O)N2CCC2=CCCCC2)cc1 (stereo unspecified) -53%
CCOc1ccc(CC(=O)NCc2ccc3c(c2)CCN3C(=O)c2ccccc2)cc1OCC -26.5%
Cc1ccc(Nc2nc3ccc(C(=O)c4ccccc4)cc3n3c(C)nnc23)c(C)c1 -2.49%
Cc1sc2ncn(CC(=O)N(C)c3ccc(C(C)C)cc3)c(=O)c2c1S(=O)(=O)N1CCC(C)CC1 -28.6%
COc1ccc(-c2noc(CC(=O)Nc3cc(OC)ccc3OC)n2)cc1 -27.7%
CC1CCC(NC(=O)C2(C)Cc3ccccc3C(=O)N2Cc2ccc(Cl)cc2)CC1 (stereo unspecified) -14.1%
CCCn1c(=O)c2sccc2n2c(CCCC(=O)N3CCN(c4cccc(Cl)c4)CC3)nnc12 -3.5%
CC(=O)c1cccc(NC(=O)CN2C(=O)CC(c3ccc(C)cc3C)=Nc3ccccc32)c1 -3.45%
O=C(/C=C/c1ccc(Cl)cc1)N1CCC(c2nc3ccccc3o2)CC1 24.1%
CCCCN(CC)CCCNC(=O)c1cn(CC)c2ccc(S(=O)(=O)N3CCc4ccccc4C3)cc2c1=O -12.7%
COc1ccc(NC(=O)c2ccco2)cc1NC(=O)c1ccc(C#N)cc1F -11.6%
O=C(NCCc1ccccc1)C1CCN(c2nc3ccccc3nc2C(F)(F)F)CC1 8.44%
CCCCCSc1nnc2c(n1)[nH]c1c(C)cccc12 7.67%
FC(F)(F)c1cc(Nc2nc3ccccc3c3nncn23)ccc1Cl -7.88%
COCCn1c(SCC(=O)c2ccc(C)cc2)nc2cc(C(=O)NC3CCCC3)ccc2c1=O 6.32%
COc1ccccc1N1CCN(c2ncnc3c2cnn3-c2ccc(C)cc2)CC1 -38.9%
CCCNC(=O)c1cnn(-c2ccc(C)c(C)c2)c1C1CCN(C(=O)OC(C)(C)C)CC1 -15.7%
Cc1cccc(CN2CCN(CC(=O)NCCc3ccc(Cl)cc3)C2=O)c1 -15.2%
Cc1cc(C)c(NC(=O)c2oc3c(c2C)-c2[nH]ncc2CC3)c(C)c1 -1.18%
Fc1ccccc1N1CCN(c2ncnc3onc(-c4ccc(Cl)cc4)c23)CC1 -33.2%
CCOC(=O)c1ccccc1NC(=O)CN1C(=O)CC(c2ccccc2)Sc2ccccc21 (stereo unspecified) -29.1%
COc1ccc(Cl)cc1NC(=O)CSc1nc2c(oc3ccccc32)c(=O)n1Cc1ccco1 -11.5%
CCCCOc1ccc(C(=O)NCc2cn3cccc(C)c3n2)cc1 -4.2%
Cc1cccc(-c2nc3scc(CCNS(=O)(=O)c4ccc(F)c(C(F)(F)F)c4)n3n2)c1 -27%
Cc1ccc(C(=O)Nc2ccc(C(=O)O)cc2)cc1S(=O)(=O)N1CCC(C)CC1 3.79%
CCCCOc1ccc(C(=O)NCCc2sc3nc(-c4ccc(OC)cc4)nn3c2C)cc1 0.589%
O=C(Nc1ccc(N2CCN(c3ccc(F)cc3)CC2)c(C(=O)O)c1)c1cccs1 18.3%
CCOc1cc2c(cc1OCC)C(CC(=O)O)N(C(=O)Nc1ccc(Br)c(C)c1)CC2 (stereo unspecified) 10.2%
CCN(CC)c1nn2c(=O)c(C(=O)NCCc3ccccc3C)cnc2s1 -21.1%
O=C(NCc1ccc(Cl)cc1)C1CCC(CNS(=O)(=O)c2ccccc2)CC1 (stereo unspecified) -23.8%
CCOc1ccc(N(C)C(=O)C2CCN(S(=O)(=O)c3c(C)noc3/C=C/c3ccc(C)cc3)CC2)cc1 -9.39%
Cn1c(=O)c2c(nc(CN3CCN(c4ccccc4F)CC3)n2Cc2ccc(F)cc2)n(C)c1=O -19.3%
CCOc1ccc(N(Cc2ccccc2)C(=O)c2nc(SC)ncc2Cl)cc1 -36.2%
O=c1c(S(=O)(=O)c2ccccc2)cn(Cc2ccccc2)c2cc(N3CCCC3)c(F)cc12 -7.08%
Cc1nn(C)c2c1c(C(F)(F)F)cc(=O)n2Cc1ccc(Br)cc1F -14%
Cc1cccc(NC(=O)CSc2nc3n[nH]c(C)c3c(=N)n2-c2cccc(Cl)c2)c1 -42.6%
Cc1cc(C)cc(C(=O)NCCc2sc(-c3ccc(F)cc3)nc2C)c1 -2.53%
COc1ccc(OC)c(C2CC(=O)Nc3c2c(=O)[nH]c2nc4ccccc4n32)c1 (stereo unspecified) 0.841%
CCOC(=O)C1CCN(CCC(=O)Nc2ccccc2OC)CC1 8.8%
N#Cc1ccc(NC(=O)COCc2cc(-c3ccco3)on2)cc1 -13.5%
CCCOc1ccc(C(=O)N2CCC(c3nc4ccccc4s3)CC2)cc1 -11.2%
O=C(C1CC1)N1CCc2cc(Br)cc(S(=O)(=O)Nc3ccc(F)c(F)c3)c21 -85.7%
CCc1ccc(/C=C(/C#N)c2nc(-c3ccc(C)cc3)cs2)cc1 -5.07%
O=S(=O)(NCC(c1ccco1)N1CCN(c2ccccc2)CC1)c1cc(F)ccc1F (stereo unspecified) -27.6%
Cc1cc(C)cc(N2CCn3c2nc2c3c(=O)n(Cc3c(F)cccc3Cl)c(=O)n2C)c1 -8.46%
O=C(Cn1c(=O)c(CNc2ccccc2)cc2cc3c(cc21)OCCO3)Nc1ccccc1Cl -14.3%
CCc1ccc2oc(-c3ccc(C)c(NC(=O)Cc4ccccc4)c3)nc2c1 23.5%
CC(C)(C)OC(=O)N1CCC(c2c(C(=O)NCCN3CCOCC3)cnn2-c2cccc(Cl)c2)CC1 -8.42%
CCOc1ccc(S(=O)(=O)N2CCC(c3ccncc3)CC2)cc1 -19.2%
COc1cccc(NC(=O)c2oc3ccc(S(=O)(=O)N4CCCCCC4)cc3c2C)c1 -16.2%
CCOC(=O)C(C)Sc1nc(-c2ccccc2)ccc1C#N (stereo unspecified) -31.2%
Cc1ccc(NC(=O)c2ccc3snnc3c2)cc1C 15.3%
CCC(C)NC(=O)c1c(C)oc2nc(C)nc(N3CCOCC3)c12 (stereo unspecified) -0.78%
COc1ccccc1NC(=O)C1CCCN(c2ncnc3onc(-c4ccc(F)cc4)c23)C1 (stereo unspecified) -15.9%
COC(=O)c1ccccc1NC(=O)c1nn(-c2ccc(OC)cc2)c(=O)c2c1c1ccccc1n2C -9.24%
COc1cccc(NC(=O)C2CCN(S(=O)(=O)c3ccc4[nH]c5c(c4c3)CCCCC5)CC2)c1 -33%
COc1ccc(-c2cc(C(=O)NCCc3ccc(OC)c(OC)c3)c3c(-c4ccc(F)cc4)[nH]nc3n2)cc1 0%
CCOC(=O)c1ccc(NC(=O)Cn2c3ncccc3c(=O)n2-c2ccc(C)c(C)c2)cc1 -27.7%
Cc1cc(C)n(-c2nc(C)c(C)c(=O)n2CC(=O)Nc2cccc([N+](=O)[O-])c2)n1 -7.19%
COc1ccc(OC)c(NC(=O)N2CC3CCCN3c3ccccc32)c1 (stereo unspecified) -28.8%
CN[C@H](CC(C)C)C(=O)N[C@H]1C(=O)N[C@@H](CC(N)=O)C(=O)N[C@@H]2C(=O)N[C@H]3C(=O)N[C@H](C(=O)N[C@H](C(=O)O)c4cc(O)cc(O)c4-c4cc3ccc4O)[C@H](O)c3ccc(c(Cl)c3)Oc3cc2cc(c3O[C@@H]2O[C@H](CO)[C@@H](O)[C@H](O)[C@@H]2O[C@H]2C[C@](C)(N)[C@H](O)[C@H](C)O2)Oc2ccc(cc2Cl)[C@H]1O 3.92%
CC(=O)c1ccc(NC(=O)CC2Oc3ccc(C)cc3NC2=O)cc1 (stereo unspecified) -19.2%
CCOC(=O)Cc1c(C(=O)OCC)nnc2c(-c3ccccc3)c(C)nn12 -4.41%
CCOC(=O)c1cccc(NC(=O)N2CC=C(c3c[nH]c4ccccc34)CC2)c1 -18.2%
COc1cccc(N2CCN(c3ncnc4c3c(-c3ccccc3)cn4-c3cccc(C(F)(F)F)c3)CC2)c1 -18.3%
CCN(CC)C(=O)Cn1c(=O)n(CCc2ccccc2)c(=O)c2ccccc21 -12.5%
CCCNC(=O)N1[C@H](c2cccs2)[C@@H](C)C(=O)[C@@H](C)[C@@H]1c1cccs1 -10.4%
Cc1cc(Nc2ccc(Br)c(C)c2)n2nc(-c3ccco3)nc2n1 -26.6%
O=C(O)c1c(Cl)c(Cl)c(Cl)c(Cl)c1-c1c2cc(I)c(=O)c(I)c-2oc2c(I)c(O)c(I)cc12 -46%
COc1ccc(S(=O)(=O)NCC(c2ccc(N(C)C)cc2)N2CCc3ccccc32)cc1F (stereo unspecified) -30.4%
Cc1cc(C)n2nc(CNS(=O)(=O)c3ccccc3)nc2n1 -6.44%
CCOC(=O)c1ccccc1NC(=O)COC(=O)CC(C)(C)CC1=NS(=O)(=O)c2ccccc2N1 -52.9%
Cc1cccc(Nc2nnc(-c3ccc(C)c(S(=O)(=O)N4CCN(C)CC4)c3)c3ccccc23)c1 -35.7%
Cc1nn2c(=O)cc(COC(=O)c3cccc(NC(=O)c4ccc(F)cc4)c3)nc2s1 -43.5%
Cc1ccc(Cl)cc1NC(=O)Cn1c(=O)n(C(C)C)c(=O)c2oc3ccccc3c21 -6.62%
Cc1cccc(C(C)C)c1NC(=O)c1ccc2c(c1)CCN2S(C)(=O)=O -11.4%
CCn1c(CN2CCC(C)CC2)nc2cc(NC(=O)c3ccc([N+](=O)[O-])cc3)ccc21 -24.9%
CC(C)CCNC(=O)C(=O)Nc1c2c(nn1-c1ccc(Cl)cc1)CSC2 -0.922%
Cc1ccc(-n2nc(-c3ccccc3)c3cnc4cc5c(cc4c32)OCO5)cc1C -7.71%
CC(=O)Nc1cccc(NC(=O)CSc2ccc(-c3sc(-c4ccccc4)nc3C)nn2)c1 -4.26%
O=C(O)CCc1ccc(-c2ccccc2)n1-c1ccc(C(=O)O)cc1 -13.5%
Cc1cccc(NC(=O)N2CCC(CN3CCCCCC3)CC2)c1C -0.211%
CC1CCN(S(=O)(=O)c2ccc3c(c2)CCN3C(=O)Nc2ccc(Br)cc2F)CC1 -1.6%
